Assay results from the supplement of paper PMC11417369.
The list shows a part of the results.

test system: PfHDP1 homeodomain (GST-tagged); assay: gcPBM binding intensity (ln(normalized median fluorescence intensity)); higher = stronger DNA binding
Outline: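 The binding buffer was 1× PBS containing 1% milk, 0.2 mg/ml BSA, 0.5% salmon testes DNA and 0.03% Triton X-100. In it, GST-tagged P. falciparum DNA-binding domains expressed in E. coli were applied for 1 h to an Agilent 4 × 180k array of primer-extended double-stranded 36-bp intergenic genomic probes plus negative controls. Binding intensity, read with Alexa488 anti-GST antibody and a 488 nm scan, is the highest Masliner-normalised natural-log median intensity across replicate spots of either probe orientation.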

| Sequence | gcPBM binding intensity (ln) |
| --- | --- |
| CACACGCACAAAAACACACACAAAGGTGTTCTTATA [CACACA_site6724] | 7.76 |
| AGATATTTCATTTAAAGTACATTCTTTATCACATAA [XGTACX_site6731] | 6.08 |
| TTATTTTTTTTTTTTCGTACTTATTTATCTTGGTAT [XGTACX_site78] | 6.28 |
| AACAATATTATTGTTTGTACTCACATATATAATATA [XGTACX_site8063] | 6.46 |
| AAAAAAACATGAAACACACACAAATATATATATATA [CACACA_site1884] | 9.09 |
| TTCGTATATTATTAATGTACATTATAAAATCAATAT [XGTACX_site5751] | 6.7 |
| TGTTTTATTATTTATAGTACATAAAAAAATATTGTA [XGTACX_site8963] | 6.16 |
| ATATATATGTGAAAATCACACATTGCTTATCTGTAA [CACACA_site6044] | 6.3 |
| AAGGCATACAATACCTGTACGCAACCTTAAAAAGAA [XGTACX_site6070] | 6.32 |
| AAAAAAAAAAAAAAAAAAAAAAAAAAAATTCTATAT [GTGCAC_negctrl_site468] | 7.19 |
| TATATATATATATATGGTACAGTTTATGCCTTTTAA [XGTACX_site6695] | 9.41 |
| ATTTTCATGATAAAGGTGCAATTATTTTTATAAGAA | 9.4 |
| TTATTTATAATATATACACACTAACATTATTTATCC [CACACA_site4835] | 6.67 |
| TATAATATATACAAATGTACATATATATATATATAT [XGTACX_site4559] | 9.21 |
| GGGGTATCTTCCTATGCACACTTGTTATGTACTAAC [CACACA_site4610] | 9.25 |
| TTTTTGTTTTTGTTTTGTACTCATACATACTATCAT [XGTACX_site4210] | 7.03 |
| ATATATACGTATGAATGTATATTTGTTTGATTTTTT [CACACA_negctrl_site835] | 6.04 |
| CTTTTATTAAAATTCACACACATAAATTTTTATAAA [CACACA_site1993] | 6.44 |
| TTATGTCATAAATGCACACATATATAAATACAGATA [CACACA_site4959] | 10.3 |
| TCTTCAAACAAAAAAAATAATAAAAAGTACAAAATG [CACACA_negctrl_site363] | 6.78 |
| ATATGTGATTTCTAATGTACACAAAAAAAAAAAAAA [XGTACX_site7701] | 6.53 |
| TTTTTATTAATAGATATAAATATATAATATGAATGT [TGCATGCA_negctrl_site309] | 6.4 |
| GAAAATTTAATATAGAACGAAAGCATACACATATAT [GTGCAC_negctrl_site424] | 6.71 |

| Sequence | gcPBM binding intensity (ln) |
| --- | --- |
| AAATATTATAGCACCACACACTTATTTTATATATAT [CACACA_site5281] | 7.11 |
| CCATATAATATGAACAGTACACACAAAATAAATTCG [XGTACX_site7590] | 6.7 |
| ATATATATATATATTTGTACAGATTTATATTATAAT [XGTACX_site7612] | 9.1 |
| ACCGAAGGAATTTATAGTACACATCATAAATAAATT [XGTACX_site4100] | 6.32 |
| AATATAAAAAAAAAATGTACATATTATATATATATA [XGTACX_site5113] | 8.75 |
| AAAAATTTTTTTTCATTTGTTTTTATTCCGTAAAAA [CACACA_negctrl_site1217] | 6.27 |
| AGTTTGATTTTTTCTTATAATATATTATTATATATT [CACACA_negctrl_site376] | 7.07 |
| TATAATATAAAATAATGTACTTTGAAATATGACATA [XGTACX_site3579] | 6.1 |
| TTTACAGATACATTCACACATAAATTCATGTATAAT [CACACA_site5387] | 6.41 |
| ATTGTTATGAGAACAGCACACAAGCTACATCATATA [CACACA_site8192] | 6.57 |
| ATATATAATTTTTGTTGTACATTATAAAAATAATTA [XGTACX_site2738] | 6.3 |
| GCGGCGGTATCATGCACACGTATATATTGTAACAGT [CACACA_site4958] | 8.63 |
| TCATTGAAAAAAATGTGTACTCATCAAGTATATATT [XGTACX_site6430] | 6.54 |
| TTTTAAAAAAATAAAAAATAATAAAAAAAATAAAAA [CACACA_negctrl_site1693] | 6.33 |
| AATGATATTATCTCTTCACACACTCACATACAGACA [CACACA_site8335] | 6.67 |
| AATATGATTATTACCCGTACATATTACCTTATGGTA [XGTACX_site1714] | 6.34 |
| TATATAAGGATATATACACACATATAGGTATTTATA [CACACA_site7092] | 6.5 |
| TCAGGAATATAAAGTGCACACATAATTTGGGGGCAA [CACACA_site7974] | 9.05 |
| GTGCATATGTAGATATGTACATATTTATTTATTATT [XGTACX_site7343] | 6.8 |
| AAAAATAAATAAAGTGGTACATAAAAAAGAGAAATT [XGTACX_site874] | 7.1 |
| ATATATATATATATATGTACATATATATACATATAT [XGTACX_site6987] | 9.22 |
| ATTCACGTGTCTTAAAAAAAAAAAAAAGAAAAAAAG [CACACA_negctrl_site573] | 6.13 |
| TCCTTAAAATATATCACACATTTCGTTCATTTATAA [CACACA_site4346] | 6.65 |

| Sequence | gcPBM binding intensity (ln) |
| --- | --- |
| AGTATACGAATAAAATGTACATACAAATTGTTGTAA [XGTACX_site36] | 6.54 |
| TATATATATATATCCACACACATACAGATATTAAGA [CACACA_site4214] | 9.09 |
| ATAATATATATACAAACACACAATTGTGTCCACATT [CACACA_site1747] | 7.03 |
| TGTACATATATATAATATATATATCATCATATTTTC [CACACA_negctrl_site1750] | 6.61 |
| ATTATATAATTGTCTTCACACACACCGATATATATA [CACACA_site8883] | 6.99 |
| ATAAGAAAAAAGAACTGTACTAATAAAATATAAAAA [XGTACX_site3715] | 6.36 |
| GGATTTATTATATATACACACATACATATATATATA [CACACA_site8669] | 8.73 |
| AAAGGATACAGACACACACACACATATATATATATA [CACACA_site906] | 9.12 |
| ATACATAAAATTAAAACACACATTTGATTAAATACG [CACACA_site7088] | 6.6 |
| ATCAAGCGCAATGTGGTGCGTAAATTTTGTATTATA | 7.83 |
| GTCTAAGCTTATAGGCGTACACATGAATATGGATGT [XGTACX_site2439] | 6.58 |
| GTGTTAAATGTTTACACACAAACTTGCAATAATTAT [CACACA_site3825] | 8.28 |
| AAAAATTATAACTAAAAAAATCACACAAAATATTTT [TGCATGCA_negctrl_site28] | 6.26 |
| TTGCATTTATTATACACACACAAAAAAATATATATA [CACACA_site238] | 7.12 |
| TATGTATTTAAGTTACCTGAACGTTCAGGTAAAATT [CACACA_negctrl_site1393] | 6.38 |
| GTAATTTTAAAGAAAAGTACACATTTATTAATTATT [XGTACX_site4468] | 5.91 |
| AAATCAAACTTTGGTGTGCACAAATATATACATATA [GTGCAC_site9986] | 11 |
| AAAAATGAGTGACACACACACATATAAATATAAATA [CACACA_site7115] | 6.22 |
| TTTTTTTTACATTCTGCACACAATTTATTTTTTTTT [CACACA_site36] | 9.09 |
| TTTATTCTCAAACACACACACATATATATATATATA [CACACA_site2895] | 9.36 |
| TTTTATATATATATCACACACACACCCATGTTTTAA [CACACA_site79] | 7.01 |
| TAATTAATAATAATATGTACATATTAATATATTATT [XGTACX_site6900] | 6.31 |
| TGATAAAGTAAATATACATGCGATTAGTTATATATA [TGCATGCA_site720] | 6.36 |

| Sequence | gcPBM binding intensity (ln) |
| --- | --- |
| TTGATAATTATATAATGTACTCATTATAATATGATG [XGTACX_site7813] | 6.26 |
| TATAAAAAAAAAAAAAGTACTAACTTAAAACAATTT [XGTACX_site7969] | 5.92 |
| AGTTTGTCAATCAACACACACCTATTTATTATAGAT [CACACA_site7777] | 6.16 |
| TATTTATTCTCCAACACACACACATATATTTATATA [CACACA_site7376] | 6.84 |
| TAAAAAAAAAGAAGGGGTACATGGATAATATATAAA [XGTACX_site8386] | 6.75 |
| CATATATGGTTATATACATGCACCATTATATTATTA [TGCATGCA_site520] | 8.66 |
| GCAGGCTAAAAAATTACACACGAAAAAAATGAATTT [CACACA_site3417] | 6.3 |
| TATATAATATTTTTCACACACCATTTCCTTAAACAC [CACACA_site4862] | 6.8 |
| TGTATAACCTGTGTTACACACATTATGATTTATATA [CACACA_site525] | 6.48 |
| TTATATGTTTTACAACGTACACAAAAAAAACTTATA [XGTACX_site4413] | 6.43 |
| CATTTTTACCGGTACTGTACATAAAAAAAAAAAAAG [XGTACX_site1548] | 6.54 |
| AAAAAAATGAAGAAATGTACAAATTTCATTAATTTT [XGTACX_site354] | 6.05 |
| GTGTAGTAAAATCGATGTACGTACAAATCAATTATT [XGTACX_site7662] | 6.46 |
| TATATATGTAAATGCACACATATGTGGATATACTTA [CACACA_site1699] | 10.3 |
| GCGAGATGCTAAAATGCATGTTGGGCATTAGTTAAA [TGCATGCA_site586] | 6.32 |
| TATAATAATTCTTTGAGTACTTAAACATGTGAAATT [XGTACX_site955] | 7.08 |
| ATATTAATATATGTGGCACACATGTGGAGTCCTATT [CACACA_site213] | 6.93 |
| TATCATTTCTAAAAAGGTACACATACATCATATATT [XGTACX_site3386] | 6.68 |
| TGAACAGACAAATACACACACTCAAAAAAAAAAAAG [CACACA_site7287] | 6.49 |
| GCACTCGTAAAAAGCACACATATAAAAACATTTATA [CACACA_site322] | 6.49 |
